These results are taken from the RNAGym collection of RNA variant scans (doi:10.1101/gad.245936.114).

Variants at the background level are over-represented here. Bounds are passed on as bounds.

B1: tRNA (parent)
chain: CUCUCGGUAGCCAAGUUGGUUUAAGGCGCAAGACUUUAAUUUAUCACUACGAAAUCUUGAGAUCGGGCGUUCGACUCGCCCCCGGGAGAUUUUUUCCUCGAGCAA

The variants in the series derive from B1. Briefly: nonsense suppression (GFP-seq) (ratio to wild type); higher = more function; SUP4oc tRNA, yeast GFP reporter sort-seq. A digest of the protocol:
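Nonsense suppression (GFPSEQ) is the median GFP/RFP ratio of each sorting bin, weighted by the variant's estimated share of cells in that bin and expressed relative to the unmutated parent tRNA. Yeast strains carried genome-integrated variants of an ochre-suppressor tRNA from a library with ~3% random mutations, plus a galactose-driven GFP ochre reporter and RFP, and were grown in raffinose/galactose medium containing 80 mg/L adenine. Cells were sorted into GFP/RFP bins, each bin was Illumina-sequenced (phred ≥30), and variants were kept only with ≥100 reads and ≥30 cells.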
On to CUCUCGGUAGCCUAGUGGGUUUAAGGCGCAAGCCUUUAAUUUAUCACUACGAAAUCUUGAGAUCGGGCGUUCGACUCGCCCCCGGGAGAUUUUUUCCUCGAGCAA, for which the nonsense suppression was at most 0.026. Take CUCUCGGUAGCCAAGCUGGUUUAAGGCGCAAGACUUUAAUUUAUCACUACGAAAUCUUGAGAUCGGGCGUUCGACUCUCCCCCGGGAGAUUUUUUCCUCGAGCAA: the nonsense suppression worked out at 0.454. In the case of CUCUCGGUAGCCAAGUUGGUUCAAGGCGCAAGAGUUUAAUUUAUCACUACGAAAUCUUGAGAUCGGGCGUUCGACUCGCCCCCGGGAAAUUUUUUCCUCGAGCAA it was at most 0.026. In the case of CUCUCGGUGGCUUAGUUGGUUUCAGGCGCAAGACUUUAAUUUAUCACUACGAAAUCUUGAGAUCGGGCGUUCGACUCGCCCCCGGGAGAUUUUUUCCUCGAGCAA it was at most 0.026. In the case of CUCUCGGUAGCCAUGUUGGUUUAAGGCGCAAGACUUUAAUUUAUCACUACGAAAUCUUGAGAUCGGGCGUUCGACUCGCCCCCGGAAGAUUUUUUCCUCGAGCAA it was at most 0.026; in that of AUCUCGGUAGCCAAGUUGGUUUAAGGCGCAAGACUUUAAUUUAUCACUACGAAAUCUUGAGAUCGGCCGUUCGACUGGCCCCCGGGAUAUUUUUUCCUCGAGCAA, at most 0.026; in that of CUCUGGGUAGCCAAGCUGGUUUAAGGCGCAAGAAUUUAAUUUAUCACUACGAAAUCUUGAGAUCGGGCUUUGGACUCGCCCCCGGGAGAUUUUUUCCUCGAGCAA, at most 0.026. As to GUCUCGGUAGCCGAGGUGGUUUAAGGCGCAAGACUUUAAUUUAUCACUACGAAACCUUGAGAUCGGGCGUUCGACUCGCCCCCGGGAGAUUUUUUCCUCGAGCAA, the nonsense suppression is at most 0.026.

Take GUCUCGGUAGCCAAGUUGGUUUAAGGCGCUAGACUUUAAUUUAUCACUACGAAAUCUUGGGAUCGGGCGUUCGACUCGCCCCCGGGAGAUUUUUUCCUCGAGCAA: the nonsense suppression was at most 0.026. In the case of CUCUCGGUAGCCAAGUUGGUUUAAGGCGCAAGGCUUUAAUUUAUCACUACGAAAUCUUGAGAUCGGGCAUUCGACUCGCCUCCGGGAGAUUUUUUCCUCGAGCAA it was at most 0.026; in that of CUCUCGGAAGCCCAGUCGGUUUAAGGCGCAAGACUUUAAUUUAUCACUACGAAAUCUUGAGAUCGGGCGUUCGACUCGCCCCCGGCAGAUUUUUUCCUCGAGCAA, at most 0.026; in that of CUCUGGGUAGCCCUGUUGGUUUAAGGCGCAAGACUUUAAUUUAUCACUACGAAAUCUUGAGCUCGGGCGUUCGACUCGCCCCCGGGAGAUUUUUUCCUCGAGCAA, at most 0.026. Then CUCUCGGUAGCCAAGUUGGUUUAAGGCGCAAGACUUUAAUUUAUCACUACGAAAUCUUGGGAUCGGGCGUUCGCCUCGCCCCCGGGAGAUUUUUUCCUCGAGCAA, with 0.0318; and CUCUCGGUAGCCAAGUUGGUUUAAGGCGCAAAACUUUAAUUUAUCACUACGAAAUGUUGAGAUCGGGCGUUCGACUCGCCCCCGGGAGAUUUUUUCCUCGAGCAA, with at most 0.026. As to CUCUCGCUAGCCAAGUUGGUUUCAGGCGCAAGACUUUAAUUUAUCACUACGAAAUCUUGAGAUCGGGCGUUCGACUCGCCUUCGGGAGAUUUUUUCCUCGAGCAA, the nonsense suppression is at most 0.026. Then CUCUCGGUAGCUAAGUUGGUUUAAGGCGCAAGACUUUAAUUUAUCACUACGAAAUCUGGAGAUCGGGCGUUCGACUCGCCCCCGGGAGAUUUUUUCCUCGAGCAA, with at most 0.026; and CUCUCGGUAGCCAAGUUGUUUUAGGGCGCAAGACUUUAAUUUAUCACUACGAAAUCUUGAGAUCGGGCGUUCGACUCGCCCCCGAGAGAUUUUUUCCUCGAGCAA, with at most 0.026; and CUCUCGGUAGCCAAGUUGGUUUAAGGCGAAAGACUUUAAUUUAUCACUACGAAAUGUUGAGAUCGGGCGUUCGACUCGCCCCCGGGAGAUUUUUUCCUCGAGCAA, with at most 0.026. Then CUCUCGGUAGCCAAGUUGGUUUAAGGCGCAAGAAUUUAAUUUAUCACUACGAAACCUUGAGAUCGGGCGUUCGACUCGCCCCCGGGAGCUUUUUUCCUCGAGCAA, with at most 0.026. As for CUCUCGAUAUCCAAGUAGGUCUAAGGCGCAAGACUUUAAUUUAUCACUACGAAAUCUUGAGAUCGGGCGUUCGACUCGCCCCCGGGAGAUUUUUUCCUCGAGCAA, the nonsense suppression is at most 0.026. Then AUCUCGGUAGCCAAGUUGGUUUAAGGCGCAAGACUUUAAUUUAUCACUACGAAACCUUGAGAUCGGGCGUUCGACUCCCCCCCGGGAGUUUUUUUCCUCGAGCAA, with at most 0.026.

As to CUCUCGGUAGCCAAGUUGGUUUAAGGCGAAAGACUUUAAUUUAUCACUACGAAAUCUUGAGAUCGGCCGUUCGACUCGCCCCCGGGAGAUUUUUUCCUCGAGCAA, the nonsense suppression is at most 0.026. In the case of GUCUCGGUAGCCAAGUUGGUUUAAGGCGCAAGACUUUAAUUUAUCACUACGAAAUCUUGAAAUCGGGCGUUCGACCCGCCCCCGGGAGAUUUUUUCCUCGAGCAA it was 0.0371; in that of CUCUCGGUUGCCAAGUGGGUUUAAGGCGCAAGACUUUAAUUUAUCACUACGAAAUCUUGAGAUCGGGCGUUCGACUAGCCCCCGGGAGAUUUUUUCCUCGAGCAA, at most 0.026. As to UUCUGGGUAGCCAAGUUGCUUUAAGGCGCAAGACUUUAAUUUAUCACUACGAAAUCUUGAGAUCGGGGGUUCGACUCGCCCCCAGGAGAUUUUUUCCUCGAGCAA, the nonsense suppression is at most 0.026.

Take CUCUCGGUAGCCAAGUUGGUCUAAGGCGCAAGACUUUAAUUUAUCACUACGAAAUGUUGAGAUCGGGCGCUCGAGUCGCCCCCGGGAGAUUUUUUCCUCGAGCAA: the nonsense suppression is at most 0.026. In the case of CUCGCGGUAGCCAAGUUGGUUUAAGGCGCAAGACUUUAAUUUAUCACUACGAAAUCUUGAGAUCGGAAGUUCGACUCGCCCCCGGGAGAUUUUUUCCUCGAGCAA it was at most 0.026.
